Reference: patent US20230174598A1 (UNIVERSITY OF FLORIDA RESEARCH FOUNDATION, published 2023)

Target: bovine enolase-1 (bovine, UniProt Q9XSJ4 1-434, AlexaFluor-546 maleimide on reactive cysteines (pulldown assay only; unlabeled in the quench and activity assays))
Assay: cell-based or functional assay

UniProt Q9XSJ4, sequence (Q9XSJ4 whole entry): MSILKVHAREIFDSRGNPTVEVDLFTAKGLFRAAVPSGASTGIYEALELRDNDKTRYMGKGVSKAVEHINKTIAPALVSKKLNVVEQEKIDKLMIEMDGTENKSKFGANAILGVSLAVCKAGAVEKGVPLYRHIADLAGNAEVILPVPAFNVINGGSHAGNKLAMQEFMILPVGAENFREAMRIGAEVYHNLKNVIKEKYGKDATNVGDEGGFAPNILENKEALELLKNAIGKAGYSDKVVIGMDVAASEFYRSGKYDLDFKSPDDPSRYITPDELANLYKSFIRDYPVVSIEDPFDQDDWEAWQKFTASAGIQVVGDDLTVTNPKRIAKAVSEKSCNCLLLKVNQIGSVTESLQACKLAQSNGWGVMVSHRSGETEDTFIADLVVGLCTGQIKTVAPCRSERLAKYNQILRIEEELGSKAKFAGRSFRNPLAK

% inhibition of enolase-1 catalytic activity: 25.2%
B1: bovine wild-type arrestin-1, N-terminally His(6)-tagged (other)
chain: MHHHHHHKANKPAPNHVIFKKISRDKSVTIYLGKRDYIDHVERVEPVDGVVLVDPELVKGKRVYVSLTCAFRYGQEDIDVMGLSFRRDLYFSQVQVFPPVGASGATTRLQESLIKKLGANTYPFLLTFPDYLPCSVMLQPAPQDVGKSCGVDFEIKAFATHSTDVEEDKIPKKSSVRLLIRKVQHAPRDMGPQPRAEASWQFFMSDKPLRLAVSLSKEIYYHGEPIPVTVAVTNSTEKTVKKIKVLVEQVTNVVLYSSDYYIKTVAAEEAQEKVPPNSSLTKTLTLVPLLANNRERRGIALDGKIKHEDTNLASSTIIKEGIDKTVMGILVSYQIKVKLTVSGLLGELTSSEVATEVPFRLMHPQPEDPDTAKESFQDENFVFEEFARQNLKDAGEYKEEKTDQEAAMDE
